According to PubChem BioAssay AID504706 (National Center for Advancing Translational Sciences (NCATS), 2011):
The campaign covered roughly 320,000 compounds. About 200 (0.062%) were called active. The inconclusive results got no clear call from the source; some entries with a clear call stand among them for comparison. Calls come from the whole dose curve; as a rule, active = well fitted activation curve with a large enough effect; inconclusive = small, poorly fitted or top-dose-only effect; inactive = no such curve, though single readings can be large or run the other way. Potencies of inconclusive entries are left out as doubtful fits.

Assay: qHTS assay for re-activators of p53 using a Luc reporter; note: nearly all actives have a fitted effect of over 45% in size
Details: H1299 p53-A138V BP100-luciferase reporter, luminescence, 24 h; series mostly up to 92.2 µM
Method in brief: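 p53-null H1299 cells stably carrying temperature-sensitive p53-A138V and a BP100-luciferase reporter were pinned with compounds (4-point, 1:5 series) and held 24 hrs at 37 deg C. Luminescence was read 10 min after detection reagent.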
Potency is the fitted concentration of half-maximal effect; tags give direction and shape of the fitted curve.

Structure (SMILES) | Potency
Cc1oncc1C(=O)Nc1ccc(C(F)(F)F)cc1 | inconclusive [activator, partial curve, poor fit]
COC(=O)c1ccc(COc2ccccc2/C=N/NC(=O)c2cccnc2)cc1 | inactive
N#Cc1c(NC(=O)C2CC(c3ccccc3O)=NO2)sc2c1CCC2 (stereo not given) | inactive
Fc1cccc2sc(Nc3nc4ccccc4s3)nc12 | inconclusive [activator, full curve, poor fit]
COc1ccc(NC(=O)C(=S)NC2CCCCC2)cc1 | inconclusive [activator, partial curve, poor fit]
COc1ccc(-n2nc(C(=O)NCC(=O)N3CCN(c4ccccn4)CC3)c3ccccc3c2=O)cc1 | inconclusive [activator, partial curve, poor fit]
On1c(-c2ccccc2)nc2ccc(Cl)cc21 | inconclusive [activator, partial curve, poor fit]
O=C(N/C(=C\c1ccccc1)C(=O)N1CCOCC1)c1ccco1 | inactive
COc1cccc(-c2nc3sc4c(c3c(=O)[nH]2)CCCCC4)c1 | inconclusive [activator, partial curve, poor fit]
COc1ccccc1/C=C/C(=O)NCc1ccccn1 | inactive
COc1ccc(CNC(=O)COC(=O)c2cccn2C)cc1 | inconclusive [activator, partial curve, poor fit]
CC(=O)Nc1cccc(-c2csc(Nc3ccc(C)cn3)n2)c1 | inconclusive [activator, partial curve, poor fit]
N#C/C(=N\Nc1cccc(Cl)c1)C(=O)c1ccccc1 | inconclusive [activator, partial curve, poor fit]
COc1ccc(OC)c(/C=C/C(=O)OCC(=O)Nc2cccc(Oc3ccccc3)c2)c1 | inactive
O=C(Nc1cc(Br)ccc1O)c1cc(-c2ccc3c(c2)OCO3)on1 | inconclusive [activator, partial curve, poor fit]
COc1ccccc1-c1nc(C#N)c(N2CCc3ccccc3C2)o1 | inconclusive [activator, single point]
COc1cccc(-c2nc(-c3ccccn3)no2)c1OC | inconclusive [activator, partial curve, poor fit]
Clc1ccc(-c2cnc3n2CCCCC3)cc1 | inactive
Cc1csc2c(N3CCN(C(=O)Nc4ccc(Cl)c(Cl)c4)CC3)ncnc12 | inactive
COc1ccc(OCC(=O)Nn2c(-c3ccc(C)cc3)nc3ccccc3c2=O)cc1 | inactive
